Reference: the antibiotic and cytotoxicity screens of Wong et al. (2023)
The list shows a part of the results.

test system: HSkMC (human skeletal muscle cells); experiment: cytotoxicity call (relative viability < 0.9); details: 10 µM

SMILES | cytotoxicity call
C[C@@H]1CN([C@@H](C)CO)C(=O)c2cc(NC(=O)C3CCCCC3)ccc2O[C@@H]1CN(C)Cc1ccc(-c2ccccc2)cc1 | active
C[C@@H]1CN([C@@H](C)CO)C(=O)c2cc(NC(=O)CCC(F)(F)F)ccc2O[C@@H]1CN(C)S(C)(=O)=O | inactive
COc1ccc(S(=O)(=O)N(C)C[C@@H]2Oc3ccc(N(C)C)cc3C(=O)N([C@@H](C)CO)C[C@@H]2C)cc1 | inactive
Cc1noc(C)c1NC(=O)N[C@@H]1CC[C@H](CC(=O)N2CCN(C)CC2)O[C@H]1CO | inactive
CCCN(C)C[C@@H]1OCCCC[C@@H](C)Oc2ccc(NS(=O)(=O)c3cn(C)cn3)cc2C(=O)N([C@H](C)CO)C[C@@H]1C | inactive
C[C@@H]1CN([C@H](C)CO)C(=O)c2cccc(NC(=O)Nc3cccc4ccccc34)c2O[C@@H]1CN(C)Cc1ccc(-c2ccccc2)cc1 | inactive
COC(=O)[C@H]1CN(C)CCC1=O | inactive
Cc1noc(C)c1NC(=O)N(C)C[C@@H]1OCCCC[C@H](C)Oc2ccc(NC(=O)C3CCCCC3)cc2C(=O)N([C@@H](C)CO)C[C@H]1C | inactive
CC(C)NC(=O)N[C@@H]1C=C[C@H](CC(=O)NCCN2CCCC2)O[C@H]1CO | inactive
CN(C)CC/C=C1/c2ccccc2Sc2ccc(Cl)cc21 | inactive
CC(C)NC(=O)Nc1ccc2c(c1)C(=O)N([C@H](C)CO)C[C@@H](C)[C@@H](CN(C)Cc1ccc(-c3ccccc3)cc1)O2 | inactive
Cc1noc(C)c1NC(=O)Nc1cccc2c1O[C@H](CN(C)Cc1ccc(-c3ccccc3)cc1)[C@H](C)CN([C@@H](C)CO)C2=O | inactive
C[C@H]1CN([C@@H](C)CO)C(=O)c2cc(Br)cnc2O[C@@H]1CN(C)Cc1cccc(C(=O)O)c1 | inactive
COc1ccc(S(=O)(=O)Nc2cccc3c2O[C@@H](CN(C)Cc2ccc(Oc4ccccc4)cc2)[C@H](C)CN([C@H](C)CO)C3=O)cc1 | inactive
C[C@@H]1CCCCO[C@H](CN(C)C(=O)Nc2ccc3c(c2)OCO3)[C@H](C)CN([C@H](C)CO)C(=O)c2cc(NS(=O)(=O)c3cccs3)ccc2O1 | inactive
C[C@@H]1CN([C@H](C)CO)C(=O)c2cc(-c3cccnc3)cnc2O[C@@H]1CN(C)Cc1ccc(Oc2ccccc2)cc1 | inactive
O=c1[nH]c(=O)n([C@H]2C[C@H](O)[C@@H](CO)O2)cc1C(F)(F)F | inactive
C[C@@H]1CCCCO[C@@H](CN(C)Cc2ccncc2)[C@H](C)CN([C@@H](C)CO)C(=O)c2cc(NS(C)(=O)=O)ccc2O1 | inactive
